Test results as given in US20200131274A1 (CRESCENDO BIOLOGICS, published 2020).
Values joined by “and” are separate entries in the source; they are usually repeats but may differ in a detail not shown here. Equal values may be shown once. Blank lines part the entries; values can stand above or below the binder they belong to.

Key:
[1] = molecular target: T1, human prostate specific membrane antigen (PSMA), full-length, on cells (human, UniProt Q04609); assay: FMAT direct cell binding, DU145 PSMA cells
T1 construct: also called huPSMA; human PSMA

[2] = molecular target: T1, human prostate specific membrane …; assay: cell-based or functional assay
[3] = molecular target: T2, recombinant human PSMA (R&D, cat. no. 4234-ZN) (human, UniProt Q04609); assay: Octet RED384 BLI, PSMA on sensor, VH series from 0.375 ug/ml
T2 construct: Bought protein; also called rhPSMA; Recombinant PMSA

[4] = molecular target: T1, human prostate specific membrane …; assay: FMAT direct cell binding, LNCap cells
[5] = molecular target: T3, cynomolgus PSMA, full-length, on CHO cells (cynomolgus, UniProt A0A2K5VNZ0 1-750); assay: FMAT direct cell binding, CHO cyno PSMA cells
T3 construct: whole, on cells; also called cynoPSMA; cyno PSMA

[6] = molecular target: T3, cynomolgus PSMA, full-length, on CHO …; assay: cell-based or functional assay
[7] = molecular target: T1, human prostate specific membrane …; assay: cell-based or functional assay; remark: listed apart in the source
[8] = molecular target: T1, human prostate specific membrane …; assay: FMAT direct cell binding, CHO human PSMA cells
[9] = molecular target: T1, human prostate specific membrane …; assay: FMAT cell binding, huPSMA CHO 1A10 cells, after 7 days in human serum at 37 C
[10] = molecular target: T1, human prostate specific membrane …; assay: FMAT cell binding, huPSMA CHO 1A10 cells, after 4 days in human serum at 37 C
[11] = molecular target: T2, recombinant human PSMA (R&D, cat. no. …); assay: Octet RED384 BLI, PSMA on sensor, Table 21 c
[12] = molecular target: T1, human prostate specific membrane …; assay: FMAT cell binding, huPSMA CHO 1A10 cells, after 0 days in human serum at 37 C
[13] = molecular target: T1, human prostate specific membrane …; assay: FMAT cell binding, huPSMA CHO 1A10 cells, after 1 day in human serum at 37 C
[14] = molecular target: T2, recombinant human PSMA (R&D, cat. no. …); assay: Octet RED384 BLI, PSMA on sensor, Table 21 b
[15] = molecular target: T1, human prostate specific membrane …; assay: FMAT direct cell binding, human PSMA-CHO cells
[16] = molecular target: T1, human prostate specific membrane …; assay: FMAT cell binding, huPSMA CHO cells, after 1 day in human serum at 37 C
[17] = molecular target: T1, human prostate specific membrane …; assay: FMAT cell binding, huPSMA CHO cells, after 7 days in human serum at 37 C
[18] = molecular target: T1, human prostate specific membrane …; assay: FMAT cell binding, huPSMA CHO cells, after 0 days in human serum at 37 C
[19] = molecular target: T1, human prostate specific membrane …; assay: FMAT cell binding, huPSMA CHO cells, after 4 days in human serum at 37 C

EC50 [1]: 0.0415 nM
pHrodo Green internalization assay, human PSMA Average EC50 (M) [2]: 5.7e-10 M
Kd [3]: 0.55 nM
koff [3]: 0.000428 s⁻¹
EC50 [4]: 0.199 nM
EC50 [5]: 0.11 nM
EC50 [8]: 0.0502 nM
B1: single VH domain antibody 1.12 (VHH)
VHH: EVQLLESGGGLVQPGGSLRLSCAASGFSFSSYALSWVRQAPGKGLEWVSSIGENNATTDYAD[… about 20 residues …]MNSLRVEDTAVYYCVKDGVHWGQGTLVTVSS
notes: Human single VH domain antibody (Humabody)
His-ZAP cell killing, cyno PSMA EC50 [6]: 970 pM
His-ZAP cell killing, human PSMA Average EC50 [7]: 18 pM

EC50 [9]: 0.274 nM and 0.15 nM
EC50 [10]: 0.259 nM and 0.18 nM
Kd [11]: 0.61 nM
koff [11]: 0.000551 s⁻¹
EC50 [1]: 0.031 nM
EC50 [12]: 0.273 nM and 0.16 nM
pHrodo Green internalization assay, human PSMA Average EC50 (M) [2]: 6.8e-10 M and 2.9e-10 M
EC50 [13]: 0.253 nM and 0.16 nM
Kd [3]: 0.61 nM
koff [3]: 0.000551 s⁻¹
EC50 [4]: 0.0585 nM
EC50 [5]: 0.0913 nM
Kd [14]: 0.58 nM
koff [14]: 0.000392 s⁻¹
EC50 [8]: 0.0334 nM
B2: single VH domain antibody 1.17 (VHH)
VHH: EVQLLESGGGLVQPGGSLRLSCAASGFSFSSYALSWVRQAPGKGLEWVSSIGENNDTTDYAD[… about 20 residues …]MNSLRVEDTAVYYCVKDGVHWGQGTLVTVSS
notes: as for B1
His-ZAP cell killing, cyno PSMA EC50 [6]: 560 pM
His-ZAP cell killing, human PSMA Average EC50 [7]: 15 pM and 26 pM

EC50 [9]: 0.11 nM
EC50 [10]: 0.12 nM
Kd [11]: 0.49 nM
koff [11]: 0.000645 s⁻¹
EC50 [12]: 0.13 nM
pHrodo Green internalization assay, human PSMA Average EC50 (M) [2]: 3.9e-10 M
EC50 [13]: 0.11 nM
Kd [14]: 0.49 nM
koff [14]: 0.000645 s⁻¹
B3: single VH domain antibody 1.27 (VHH)
VHH: EVQLLESGGGLVQPGGSLRLSCAASGFSFSSYALSWVRQAPGKGLEWVSSIGENDGTTDYAD[… about 20 residues …]MNSLRVEDTAVYYCVKDGVHWGQGTLVTVSS
notes: Human single VH domain antibody (Humabody); also called VH 1.27
His-ZAP cell killing, human PSMA Average EC50 [7]: 52 pM

More lines, now with the values behind:

B4: 1.17-6GS-2.1 (bispecific antibody)
chain: EVQLLESGGGLVQPGGSLRLSCAASGFSFSSYALSWVRQAPGKGLEWVSSIGENNDTTDYAD[… about 20 residues …]MNSLRVEDTAVYYCVKDGVHWGQGTLVTVSSGGGGSGGGGSGGGGSGGGGSGGGGSGGGGSEVQLVESGGGVVQPGRSLRLSCAASGFSFSGYGMHWVRQAPGKGLEWVAYISYDGSNKYYADSVKGRFTISRDNSKNTLYLQMNSLRAEDTAVYYCAKDPAWGLRLGESSSYDFDIWGQGTMVTVSS
notes: linker (G4S)6; also called 1.17-2.1
EC50 [15]: 0.325 nM
EC50 [16]: 0.0477 nM
EC50 [17]: 0.0544 nM
EC50 [18]: 0.0569 nM
EC50 [19]: 0.0458 nM
His-ZAP cell killing, cyno PSMA Average EC50 [6]: 15 pM
His-ZAP cell killing, human PSMA Average EC50 [7]: 13 pM

B5: 1.17-6GS-2.15 (bispecific antibody)
chain: EVQLLESGGGLVQPGGSLRLSCAASGFSFSSYALSWVRQAPGKGLEWVSSIGENNDTTDYAD[… about 20 residues …]MNSLRVEDTAVYYCVKDGVHWGQGTLVTVSSGGGGSGGGGSGGGGSGGGGSGGGGSGGGGSEVQLVESGGGVVQPGRSLRLSCAASGFSFSGYGLHWVRQAPGKGLEWVAYISYDKSNKYYADKVKGRFTISRDNSKNTLYLQMNSLRAEDTAVYYCAKDPAWGLRLGESSSYDFDIWGQGTMVTVSS
His-ZAP cell killing, cyno PSMA Average EC50 [6]: 12 pM

B6: 1.17-6GS-2.17 (bispecific antibody)
chain: EVQLLESGGGLVQPGGSLRLSCAASGFSFSSYALSWVRQAPGKGLEWVSSIGENNDTTDYAD[… about 20 residues …]MNSLRVEDTAVYYCVKDGVHWGQGTLVTVSSGGGGSGGGGSGGGGSGGGGSGGGGSGGGGSEVQLVESGGGVVQPGRSLRLSCAASGFSFSGYGMHWVRQAPGKGLEWVAYISYDASNKYYADNVKGRFTISRDNSKNTLYLQMNSLRAEDTAVYYCAKDPAWGLRLGESSSYDFDIWGQGTMVTVSS
notes: linker (G4S)6
EC50 [15]: 0.192 nM
EC50 [16]: 0.0332 nM
EC50 [17]: 0.057 nM
EC50 [18]: 0.0674 nM
EC50 [19]: 0.0473 nM
His-ZAP cell killing, cyno PSMA Average EC50 [6]: 10 pM
His-ZAP cell killing, human PSMA Average EC50 [7]: 14 pM

B7: 1.17-6GS-2.22 (bispecific antibody)
chain: EVQLLESGGGLVQPGGSLRLSCAASGFSFSSYALSWVRQAPGKGLEWVSSIGENNDTTDYAD[… about 20 residues …]MNSLRVEDTAVYYCVKDGVHWGQGTLVTVSSGGGGSGGGGSGGGGSGGGGSGGGGSGGGGSEVQLVESGGGVVQPGRSLRLSCAASGFSFSGYGTHWVRQAPGKGLEWVAYISYDGSNKYYAAPVKGRFTISRDNSKNTLYLQMNSLRAEDTAVYYCAKDAAWGLRLGESSSYDFDIWGQGTMVTVSS
notes: linker (G4S)6; also called 1.17-2.22
EC50 [15]: 0.199 nM
His-ZAP cell killing, cyno PSMA Average EC50 [6]: 12 pM
His-ZAP cell killing, human PSMA Average EC50 [7]: 18 pM
